{"source": "the supplement of paper PMC10126150", "note": "Sequences with one replicate were seen in a single cluster, so their values are uncertain.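 Further: ATP exposure 15 min at 22 °C before imaging.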"}
{"test_system": "ATP", "test": "switch fluorescence ratio, 500 uM ATP over buffer (Cy3 cluster intensity, sum of 5 cycles each) (fold (ratio)); higher = stronger signal-on switching upon ATP binding; sequences stand for … in TCGTCGGCAGCGTCAGATGTGTATAAGAGACAGTTTTTTTTTTTTTTTTTTTTTTTTT…TC", "details": "aptamer strand: ATP DNA aptamer (quencher-CACCTGGGGGAGTATTGCGGAGGAAGG + anchor), 100 nM annealed; ATP concentration: 500 uM; one replicate", "how_it_was_run": "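Cy3-labelled switching-strand clusters on a modified Illumina MiSeq flow-cell were annealed to 100 nM quencher-labelled ATP aptamer, imaged in selection buffer, then imaged after 15 min with 500 uM ATP at 22 °C. Five buffer/ATP cycles ran, with NaOH stripping and re-annealing between them. The fluorescence ratio is summed target-cycle over summed buffer-cycle Cy3 intensity per cluster, averaged per switch-domain sequence. Clusters outside 100-1000 RFU were excluded.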"}
{"sequence": "GAGATAATGG", "switch fluorescence ratio": 1.02}
{"sequence": "GAGATCAACT", "switch fluorescence ratio": 0.957}
{"sequence": "GAGATTACGC", "switch fluorescence ratio": 1.02}
{"sequence": "GAGCAATACG", "switch fluorescence ratio": 1.85}
{"sequence": "GAGCAGGATA", "switch fluorescence ratio": 1.04}
{"sequence": "GAGCAGGGTT", "switch fluorescence ratio": 1.01}
{"sequence": "GAGCAGGTTC", "switch fluorescence ratio": 1.14}
{"sequence": "GAGCATATGG", "switch fluorescence ratio": 0.923}
{"sequence": "GAGCATGCTT", "switch fluorescence ratio": 0.986}
{"sequence": "GAGCATTTGG", "switch fluorescence ratio": 0.954}
{"sequence": "GAGCCAAGCT", "switch fluorescence ratio": 1}
{"sequence": "GAGCCATGGG", "switch fluorescence ratio": 0.96}
{"sequence": "GAGCCCACGC", "switch fluorescence ratio": 0.973}
{"sequence": "GAGCCGCCTA", "switch fluorescence ratio": 1}
{"sequence": "GAGCCGGAGT", "switch fluorescence ratio": 1.04}
{"sequence": "GAGCCTCCTG", "switch fluorescence ratio": 1.02}
{"sequence": "GAGCCTCGTG", "switch fluorescence ratio": 1.03}
{"sequence": "GAGCCTTTAC", "switch fluorescence ratio": 1.23}
{"sequence": "GAGCGCCTTT", "switch fluorescence ratio": 1.03}
{"sequence": "GAGCGCGGGA", "switch fluorescence ratio": 1.01}
{"sequence": "GAGCGGGTGA", "switch fluorescence ratio": 1.05}
{"sequence": "GAGCGGGTTA", "switch fluorescence ratio": 0.981}
{"sequence": "GAGCTATCTG", "switch fluorescence ratio": 1.05}
{"sequence": "GAGCTGGCTC", "switch fluorescence ratio": 1.03}
{"sequence": "GAGCTTACCG", "switch fluorescence ratio": 1.01}
{"sequence": "GAGCTTCACG", "switch fluorescence ratio": 1.03}
{"sequence": "GAGCTTCGTA", "switch fluorescence ratio": 1.01}
{"sequence": "GAGCTTGATT", "switch fluorescence ratio": 1.01}
{"sequence": "GAGGAAATGT", "switch fluorescence ratio": 0.952}
{"sequence": "GAGGACTAGT", "switch fluorescence ratio": 1.03}
{"sequence": "GAGGAGAGCG", "switch fluorescence ratio": 1.02}
{"sequence": "GAGGATACGT", "switch fluorescence ratio": 1.03}
{"sequence": "GAGGATTGCG", "switch fluorescence ratio": 0.954}
{"sequence": "GAGGCAACAG", "switch fluorescence ratio": 1.47}
{"sequence": "GAGGCAGCAT", "switch fluorescence ratio": 1.32}
{"sequence": "GAGGCCCGTT", "switch fluorescence ratio": 0.987}
{"sequence": "GAGGCCGC", "switch fluorescence ratio": 1.07}
{"sequence": "GAGGCGAGAA", "switch fluorescence ratio": 1.07}
{"sequence": "GAGGCGCATA", "switch fluorescence ratio": 1.09}
{"sequence": "GAGGCTACGG", "switch fluorescence ratio": 1}
{"sequence": "GAGGCTTGAC", "switch fluorescence ratio": 0.978}
{"sequence": "GAGGGACCTA", "switch fluorescence ratio": 0.992}
{"sequence": "GAGGGAGACT", "switch fluorescence ratio": 0.996}
{"sequence": "GAGGGAGCTC", "switch fluorescence ratio": 0.98}
{"sequence": "GAGGGAGT", "switch fluorescence ratio": 1.04}
{"sequence": "GAGGGCAAGG", "switch fluorescence ratio": 1.04}
{"sequence": "GAGGGCAGCG", "switch fluorescence ratio": 0.981}
{"sequence": "GAGGGCCATG", "switch fluorescence ratio": 1.01}
{"sequence": "GAGGGCGGGT", "switch fluorescence ratio": 1.03}
{"sequence": "GAGGGGAACG", "switch fluorescence ratio": 1.01}
{"sequence": "GAGGGGATCT", "switch fluorescence ratio": 0.962}
{"sequence": "GAGGGGCCCT", "switch fluorescence ratio": 0.973}
{"sequence": "GAGGGTTACA", "switch fluorescence ratio": 0.982}
{"sequence": "GAGGGTTACC", "switch fluorescence ratio": 0.893}
{"sequence": "GAGGGTTAGA", "switch fluorescence ratio": 1}
{"sequence": "GAGGGTTCTC", "switch fluorescence ratio": 0.984}
{"sequence": "GAGGGTTTAG", "switch fluorescence ratio": 1}
{"sequence": "GAGGTAGCCG", "switch fluorescence ratio": 0.939}
{"sequence": "GAGGTAGTC", "switch fluorescence ratio": 1.03}
{"sequence": "GAGGTATACA", "switch fluorescence ratio": 1.2}
{"sequence": "GAGGTATATT", "switch fluorescence ratio": 1.02}
{"sequence": "GAGGTATCGG", "switch fluorescence ratio": 0.978}
{"sequence": "GAGGTCACTA", "switch fluorescence ratio": 1}
{"sequence": "GAGGTGTCGG", "switch fluorescence ratio": 0.956}
{"sequence": "GAGGTTAACT", "switch fluorescence ratio": 0.996}
{"sequence": "GAGTAAATTA", "switch fluorescence ratio": 0.955}
{"sequence": "GAGTAACCCG", "switch fluorescence ratio": 1.04}
{"sequence": "GAGTAGAGCG", "switch fluorescence ratio": 0.982}
{"sequence": "GAGTAGCCGC", "switch fluorescence ratio": 1.07}
{"sequence": "GAGTAGCTTA", "switch fluorescence ratio": 0.987}
{"sequence": "GAGTAGTCAA", "switch fluorescence ratio": 1.01}
{"sequence": "GAGTATAGTA", "switch fluorescence ratio": 1.07}
{"sequence": "GAGTATCGTC", "switch fluorescence ratio": 0.921}
{"sequence": "GAGTATGGGG", "switch fluorescence ratio": 0.953}
{"sequence": "GAGTCAGCTG", "switch fluorescence ratio": 0.93}
{"sequence": "GAGTCCTAGT", "switch fluorescence ratio": 0.985}
{"sequence": "GAGTCTACGC", "switch fluorescence ratio": 0.969}
{"sequence": "GAGTCTCCAG", "switch fluorescence ratio": 1}
{"sequence": "GAGTGACTGG", "switch fluorescence ratio": 0.989}
{"sequence": "GAGTGACTTT", "switch fluorescence ratio": 1.04}
{"sequence": "GAGTGCGTTG", "switch fluorescence ratio": 0.973}
{"sequence": "GAGTGCTGAC", "switch fluorescence ratio": 0.969}
{"sequence": "GAGTGCTTAT", "switch fluorescence ratio": 1.03}
{"sequence": "GAGTGGAACA", "switch fluorescence ratio": 0.993}
{"sequence": "GAGTGGAGCT", "switch fluorescence ratio": 0.966}
{"sequence": "GAGTGGCCTA", "switch fluorescence ratio": 1.04}
{"sequence": "GAGTGGCTGA", "switch fluorescence ratio": 1.01}
{"sequence": "GAGTGGGGTG", "switch fluorescence ratio": 0.973}
{"sequence": "GAGTGGTCGT", "switch fluorescence ratio": 0.954}
{"sequence": "GAGTGTATGT", "switch fluorescence ratio": 0.983}
{"sequence": "GAGTGTCATT", "switch fluorescence ratio": 0.949}
{"sequence": "GAGTTAATCT", "switch fluorescence ratio": 1.03}
{"sequence": "GAGTTAGGAC", "switch fluorescence ratio": 1.03}
{"sequence": "GAGTTAGTTC", "switch fluorescence ratio": 0.947}
{"sequence": "GAGTTATATC", "switch fluorescence ratio": 1.04}
{"sequence": "GAGTTCAGCA", "switch fluorescence ratio": 1.03}
{"sequence": "GAGTTCATT", "switch fluorescence ratio": 1}
{"sequence": "GAGTTCGGAT", "switch fluorescence ratio": 0.983}
{"sequence": "GAGTTCTACT", "switch fluorescence ratio": 0.99}
{"sequence": "GAGTTGTAGC", "switch fluorescence ratio": 1.01}
{"sequence": "GAGTTTGATT", "switch fluorescence ratio": 0.948}
{"sequence": "GATAAAATTA", "switch fluorescence ratio": 1.04}
{"sequence": "GATAAAGGCT", "switch fluorescence ratio": 1.04}
{"sequence": "GATAAATCCG", "switch fluorescence ratio": 0.997}
{"sequence": "GATAACAAAG", "switch fluorescence ratio": 0.981}
{"sequence": "GATAACACTC", "switch fluorescence ratio": 1.06}
{"sequence": "GATAACATAA", "switch fluorescence ratio": 0.943}
{"sequence": "GATAACCCTG", "switch fluorescence ratio": 0.964}
{"sequence": "GATAACCTCG", "switch fluorescence ratio": 1.03}
{"sequence": "GATAACGTGC", "switch fluorescence ratio": 1.03}
{"sequence": "GATAACGTTG", "switch fluorescence ratio": 1.04}
{"sequence": "GATAACTACA", "switch fluorescence ratio": 1.02}
{"sequence": "GATAACTATG", "switch fluorescence ratio": 0.999}
{"sequence": "GATAATCTGA", "switch fluorescence ratio": 0.97}
{"sequence": "GATAATTGTT", "switch fluorescence ratio": 0.964}
{"sequence": "GATACACACG", "switch fluorescence ratio": 1.56}
{"sequence": "GATACACCGG", "switch fluorescence ratio": 1.11}
{"sequence": "GATACACTTC", "switch fluorescence ratio": 1.03}
{"sequence": "GATACATCCG", "switch fluorescence ratio": 1.1}
{"sequence": "GATAGAAGTC", "switch fluorescence ratio": 0.985}
{"sequence": "GATAGAGCCG", "switch fluorescence ratio": 1.02}
{"sequence": "GATAGAGTCT", "switch fluorescence ratio": 1.04}
{"sequence": "GATAGAGTTG", "switch fluorescence ratio": 0.984}
{"sequence": "GATAGCCCGG", "switch fluorescence ratio": 1.01}
{"sequence": "GATAGGAGTT", "switch fluorescence ratio": 1.02}
{"sequence": "GATAGGATGT", "switch fluorescence ratio": 1.02}
{"sequence": "GATAGGTGAC", "switch fluorescence ratio": 1.02}
{"sequence": "GATAGTACTT", "switch fluorescence ratio": 0.99}
{"sequence": "GATAGTGGAC", "switch fluorescence ratio": 1.03}
{"sequence": "GATATACACT", "switch fluorescence ratio": 1.12}
{"sequence": "GATATACTA", "switch fluorescence ratio": 0.993}
{"sequence": "GATATCATCA", "switch fluorescence ratio": 0.975}
{"sequence": "GATATCTCCG", "switch fluorescence ratio": 1.15}
{"sequence": "GATATGTATT", "switch fluorescence ratio": 0.994}
{"sequence": "GATATTGAGA", "switch fluorescence ratio": 1.02}
{"sequence": "GATATTGCAC", "switch fluorescence ratio": 1.07}
{"sequence": "GATCACGTAC", "switch fluorescence ratio": 1.8}
{"sequence": "GATCACTTAG", "switch fluorescence ratio": 1.04}
{"sequence": "GATCAGCAGG", "switch fluorescence ratio": 1.02}
{"sequence": "GATCAGCTGA", "switch fluorescence ratio": 1.05}
{"sequence": "GATCAGGACT", "switch fluorescence ratio": 1}
{"sequence": "GATCATACAT", "switch fluorescence ratio": 1.01}
{"sequence": "GATCCAAAAA", "switch fluorescence ratio": 1.02}
{"sequence": "GATCCCCAGG", "switch fluorescence ratio": 5.16}
{"sequence": "GATCCGATGG", "switch fluorescence ratio": 1}
{"sequence": "GATCCGCTGT", "switch fluorescence ratio": 2.9}
{"sequence": "GATCCGTGGT", "switch fluorescence ratio": 1.01}
{"sequence": "GATCGAAAAT", "switch fluorescence ratio": 1.03}
{"sequence": "GATCGCTCCG", "switch fluorescence ratio": 1.05}
{"sequence": "GATCGCTCTC", "switch fluorescence ratio": 1.42}
{"sequence": "GATCGGACTG", "switch fluorescence ratio": 0.984}
{"sequence": "GATCGTACAC", "switch fluorescence ratio": 1.27}
{"sequence": "GATCGTGACA", "switch fluorescence ratio": 0.972}
